Measured values reported in the supplement of paper PMC12217912.
The other results are listed elsewhere or left out. The full chains were built here from the parent and the listed change. Values near 0.05 are background.

B1: TEV protease; numbered along this chain (parent)
chain: MGESLFKGPRDYNPISSSICHLTNESDGHTTSLYGIGFGPFIITNKHLFRRNNGTLVVQSLHGVFKVKDTTTLQQHLVDGRDMIIIRMPKDFPPFPQKLKFREPQREERICLVTTNFQTKSMSSMVSDTSCTFPSGDGIFWKHWIQTKDGQCGSPLVSTRDGFIVGIHSASNFTNTNNYFTSVPKNFMELLTNQEAQQWVSGWRLNADSVLWGGHKVFMVKPEEPFQPVKEATQL

Variants of: B1
Test: raw area under fraction-flipped curve 0-4 h after induction (AUC4h, not background-subtracted), DNA-recorder readout of cleavage of the substrate (dimensionless); higher = more cleavage of the substrate by the protease variant
Conditions: temperature: 34 °C; time window: 0-4 h after rhamnose induction
Experimental: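 In vivo DNA recorder in E. coli TOP10(DE3) ΔrhaA at 34 °C. Each TEVp single-site mutant (parent TEVp 0) is paired with a single-site variant of the 7-mer TEVs (canonical ENLYFQ|S). The substrate sits between flexible linkers in a Bxb1-sfGFP-TEVs-SsrA fusion, so cleavage stabilises Bxb1 and speeds flipping of a recombination array, read by NGS. The value is the raw area under the fraction-flipped curve over 0-4 h after rhamnose induction (AUC4h), with ≥20 reads per time point. It is not background-subtracted; inactive controls average about 0.047.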
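Also: Bxb1 expression induced with 0.2% (w/v) L-rhamnose at OD600 near 0.5, cultures sampled hourly, flipped fraction per protease–substrate barcode pair counted by paired-end Illumina sequencing.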

MGESLFKGPRDYTPISSSICHLTNESDGHTTSLYGIGFGPFIITNKHLFRRNNGTLVVQSLHGVFKVKDTTTLQQHLVDGRDMIIIRMPKDFPPFPQKLKFREPQREERICLVTTNFQTKSMSSMVSDTSCTFPSGDGIFWKHWIQTKDGQCGSPLVSTRDGFIVGIHSASNFTNTNNYFTSVPKNFMELLTNQEAQQWVSGWRLNADSVLWGGHKVFMVKPEEPFQPVKEATQL [N13T]
area with substrate ENLYFAS: 0.057 | area with substrate ENLYFCS: 0.0647 | area with substrate ENLYFDS: 0.107 | area with substrate ENLYFFS: 0.074 | area with substrate ENLYFHS: 0.0507 | area with substrate ENLYFIS: 0.0386 | area with substrate ENLYFKS: 0.0597 | area with substrate ENLYFLS: 0.0779 | area with substrate ENLYFMS: 0.082 | area with substrate ENLYFPS: 0.0753 | area with substrate ENLYFRS: 0.051 | area with substrate ENLYFSS: 0.0772 | area with substrate ENLYFTS: 0.051 | area with substrate ENLYFVS: 0.0597 | area with substrate ENLYFWS: 0.0616 | area with substrate ENLYFYS: 0.0543

MGESEFKGPRDYNPISSSICHLTNESDGHTTSLYGIGFGPFIITNKHLFRRNNGTLVVQSLHGVFKVKDTTTLQQHLVDGRDMIIIRMPKDFPPFPQKLKFREPQREERICLVTTNFQTKSMSSMVSDTSCTFPSGDGIFWKHWIQTKDGQCGSPLVSTRDGFIVGIHSASNFTNTNNYFTSVPKNFMELLTNQEAQQWVSGWRLNADSVLWGGHKVFMVKPEEPFQPVKEATQL [L5E]
area with substrate ENLYFAS: 0.0614 | area with substrate ENLYFCS: 0.0508 | area with substrate ENLYFDS: 0.0735 | area with substrate ENLYFES: 0.0625 | area with substrate ENLYFFS: 0.0567 | area with substrate ENLYFIS: 0.0477 | area with substrate ENLYFKS: 0.0584 | area with substrate ENLYFLS: 0.0528 | area with substrate ENLYFMS: 0.0591 | area with substrate ENLYFNS: 0.072 | area with substrate ENLYFPS: 0.053 | area with substrate ENLYFRS: 0.0513 | area with substrate ENLYFSS: 0.0441 | area with substrate ENLYFVS: 0.0573 | area with substrate ENLYFWS: 0.0547

MGESLFKGPRDYNIISSSICHLTNESDGHTTSLYGIGFGPFIITNKHLFRRNNGTLVVQSLHGVFKVKDTTTLQQHLVDGRDMIIIRMPKDFPPFPQKLKFREPQREERICLVTTNFQTKSMSSMVSDTSCTFPSGDGIFWKHWIQTKDGQCGSPLVSTRDGFIVGIHSASNFTNTNNYFTSVPKNFMELLTNQEAQQWVSGWRLNADSVLWGGHKVFMVKPEEPFQPVKEATQL [P14I]
area with substrate ENLYFAS: 0.0559 | area with substrate ENLYFDS: 0.0701 | area with substrate ENLYFES: 0.0558 | area with substrate ENLYFFS: 0.0577 | area with substrate ENLYFGS: 0.0554 | area with substrate ENLYFHS: 0.0342 | area with substrate ENLYFIS: 0.0606 | area with substrate ENLYFKS: 0.0529 | area with substrate ENLYFLS: 0.0996 | area with substrate ENLYFMS: 0.0633 | area with substrate ENLYFNS: 0.0616 | area with substrate ENLYFPS: 0.0552 | area with substrate ENLYFRS: 0.0571 | area with substrate ENLYFTS: 0.0604 | area with substrate ENLYFYS: 0.0702

MGEDLFKGPRDYNPISSSICHLTNESDGHTTSLYGIGFGPFIITNKHLFRRNNGTLVVQSLHGVFKVKDTTTLQQHLVDGRDMIIIRMPKDFPPFPQKLKFREPQREERICLVTTNFQTKSMSSMVSDTSCTFPSGDGIFWKHWIQTKDGQCGSPLVSTRDGFIVGIHSASNFTNTNNYFTSVPKNFMELLTNQEAQQWVSGWRLNADSVLWGGHKVFMVKPEEPFQPVKEATQL [S4D]
area with substrate ENLYFAS: 0.0699 | area with substrate ENLYFCS: 0.0429 | area with substrate ENLYFES: 0.0641 | area with substrate ENLYFFS: 0.0709 | area with substrate ENLYFGS: 0.0461 | area with substrate ENLYFHS: 0.0614 | area with substrate ENLYFIS: 0.0553 | area with substrate ENLYFKS: 0.0589 | area with substrate ENLYFLS: 0.0602 | area with substrate ENLYFMS: 0.0656 | area with substrate ENLYFNS: 0.0659 | area with substrate ENLYFPS: 0.0552 | area with substrate ENLYFRS: 0.0586 | area with substrate ENLYFTS: 0.0621 | area with substrate ENLYFVS: 0.0599 | area with substrate ENLYFYS: 0.0542

MGESLFKGPRWYNPISSSICHLTNESDGHTTSLYGIGFGPFIITNKHLFRRNNGTLVVQSLHGVFKVKDTTTLQQHLVDGRDMIIIRMPKDFPPFPQKLKFREPQREERICLVTTNFQTKSMSSMVSDTSCTFPSGDGIFWKHWIQTKDGQCGSPLVSTRDGFIVGIHSASNFTNTNNYFTSVPKNFMELLTNQEAQQWVSGWRLNADSVLWGGHKVFMVKPEEPFQPVKEATQL [D11W]
area with substrate ENLYFAS: 0.0619 | area with substrate ENLYFCS: 0.0608 | area with substrate ENLYFDS: 0.0571 | area with substrate ENLYFES: 0.066 | area with substrate ENLYFFS: 0.0673 | area with substrate ENLYFHS: 0.0585 | area with substrate ENLYFIS: 0.0558 | area with substrate ENLYFKS: 0.0499 | area with substrate ENLYFLS: 0.0566 | area with substrate ENLYFMS: 0.0738 | area with substrate ENLYFNS: 0.034 | area with substrate ENLYFPS: 0.0677 | area with substrate ENLYFRS: 0.0682 | area with substrate ENLYFSS: 0.0503 | area with substrate ENLYFTS: 0.0707 | area with substrate ENLYFVS: 0.0598 | area with substrate ENLYFWS: 0.0514
